Data taken from patent US20250325717A1, “ANTI-NUCLEOPHOSMIN 1 ANTIBODY AND ANTIBODY CONJUGATE COMBINATION THERAPIES” (The Children's Medical Center Corporation, priority 2022, published 2025).

Key:
Format in all cases: cell-based
[1] = biological target: T1, surface localized NPM1 on primary murine MLL-rearranged AML cells (Mus musculus, UniProt Q61937); test: FACS binding to primary murine MLL-rearranged AML cells
T1 construct: endogenous in cells; host or cells: primary murine MLL-rearranged AML cells
T1 sequence (Q61937 whole entry): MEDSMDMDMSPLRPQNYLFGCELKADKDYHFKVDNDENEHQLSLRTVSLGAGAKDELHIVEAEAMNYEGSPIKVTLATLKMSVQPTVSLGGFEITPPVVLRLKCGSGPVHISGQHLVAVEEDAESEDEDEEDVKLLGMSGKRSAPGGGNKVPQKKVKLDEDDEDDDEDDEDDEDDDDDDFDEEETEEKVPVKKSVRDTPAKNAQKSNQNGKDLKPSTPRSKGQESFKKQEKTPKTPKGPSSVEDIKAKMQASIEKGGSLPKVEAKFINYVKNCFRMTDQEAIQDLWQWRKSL
Text: (§1) Given that a variety of murine and human leukemia cell lines express cell surface WT and/or mutant NPM1, it was subsequently assessed whether the isolated antibodies could also bind to the surface of these cells. […] These antibodies could further be used in other applications, including, for example, diagnostic agents by instead conjugating the antibodies with an imaging agent, which can in turn be used to locate and measure the relative abundance of cancer cells in a patient.

[2] = test system: surface localized NPM1 on primary murine NPM1c AML cells; test: FACS binding to primary murine NPM1c AML cells
Text: as §1

[3] = test system: NPM1 on human patient derived xenograft (PDX) cells; test: FACS binding to human PDX cells transplanted into a mouse model
Text: as §1

[4] = test system: host murine bone marrow cells; test: FACS binding to host murine bone marrow cells of PDX mice; details: host bone marrow of PDX mouse model
Text: as §1

B1: Ab2 (antibody)
heavy: [sequence of about 100 residues not given]WRNNAFDYWGQGTLVTVSSAKTTAPSVYPLAPVCGDTTGSSVTLGCLVKGYFPEPVTLTWNSGSLSSGVHTFPAVLQSDLYTLSSSVTVTSSTWPSQSITCNVAHPASSTKVDKKIEPRGPTIKPCPPCKCPAPNLLGGPSVFIFPPKIKDVLMISLSPIVTCVVVDVSEDDPDVQISWFVNNVEVHTAQTQTHREDYNSTLRVVSALPIQHQDWMSGKEFKCKVNNKDLPAPIERTISKPKGSVRAPQVYVLPPPEEEMTKKQVTLTCMVTDFMPEDIYVEWTNNGKTELNYKNTEPVLDSDGSYFMYSKLRVEKKNWVERNSYSCSVVHEGLHNHHTTKSFSRTPGK
light: SSELTQDPAVSVALGQTVRITCQGDSLRSYYASWYQQKPGQAPVLVIYGKNNRPSGIPDRFSGSSSGNTASLTITGAQAEDEADYYCNSSPRLKHRVVFGGGTKLTVLGQPKSSPSVTLFPPSSEELETNKATLVCTITDFYPGVVTVDWKVDGTPVTQGMETTQPSKQSNNKYMASSYLTLTARAWERHSSYSCQVTHEGHTVEKSLSRADCS
- binding to surface localized NPM1 [1]: capable of binding
- binding to surface localized NPM1 [2]: capable of binding
- binding to NPM1 on PDX cells [3]: bound
- binding to host murine bone marrow cells [4]: without binding
